Data published in PubChem BioAssay (EPA / NIEHS).
Where “and” joins values, the source holds several entries; their conditions need not be identical. Equal entries are not always repeated. Inconclusive results, whose numbers are uncertain, are shown with a selection of clear calls. A potency beside an inconclusive call is a rough fit, not a confirmed value. Calls of active or inactive are those of the source. The calls were made as follows: active = hit-call score of the fitted dose curve at least 0.9, where 1 is the maximum; inconclusive = response in the unintended direction; inactive = score below 0.9.

Each compound was assayed on frog Androgen Receptor (AR), gene 399456 (assay: ATG_frAR_XSP2: Attagene TRANS-FACTORIAL Multi-Species (XSP2) HepG2 Assay for frog Androgen Receptor (AR) (AID 2283824);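 also: reporter mRNA from GAL4-UAS units driven by Xenopus AR-Gal4 chimera; actives raise reporter signal above DMSO so AC50 reflects agonist-like induction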).
Protocol: ATG_XSP2_multi-species_TRANS is a cell-based, multiplexed assay created by modifying the existing Attagene TRANS-FACTORIAL system to include a panel of nuclear receptors from some or all the following species: human (Homo sapiens), mouse (Mus musculus), frog (Xenopus laevis), zebrafish (Danio rerio), chicken (Gallus gallus), and turtle (Chrysemys picta). The ECOTOX-FACTORIAL format uses HepG2, a human liver cell line, with measurements taken at 24 hours after chemical dosing in a 24-well plate. Xsp2 included 3 nM 6-alpha-fluorotestosterone and 1.5 nM norgestrel to stimulate the androgen receptor.ATG_frAR_XSP2 is one of 29 assay components measured or calculated from the ATG_XSP2_multi-species_TRANS assay. It is designed to make measurements of mRNA induction, a form of inducible reporter, as detected with fluorescence intensity signals by Reverse transcription polymerase chain reaction (RT-PCR) and Capillary electrophoresis technology.The assay endpoint ATG_frAR_XSP2 was analyzed in the positive analysis fitting direction relative to DMSO as the negative control and baseline of activity. Using a type of inducible reporter, measures of mRNA for gain-of-signal activity can be used to understand the reporter gene at the transcription factor-level as they relate to the gene AR. Furthermore, this assay endpoint can be referred to as a primary readout, because this assay has produced multiple assay endpoints where this one serves a reporter gene function. To generalize the intended target to other relatable targets, this assay endpoint is annotated to the nuclear receptor intended target family, where the subfamily is steroidal.
Human liver HepG2 cells are transiently transfected with multiple reporter transcription units (MRTUs) in 6-well plates using FuGene 6 reagent (Roche; 3 ml FuGene/1 mg DNA). The MRTU constructs are regulated by a cis-regulating element (promoter). […] A major difference between the CIS and TRANS system is that in CIS activities of endogenous TFs are measured, whereas the TRANS assay evaluates changes in activities of exogenous, chimeric NR-Gal4 proteins. […] At the end of 24 hour incubation, total RNA was isolated using TriZol reagent (Invitrogen). The isolated RNA is then reverse-transcribed using oligo(dT) primer and Mo-MLV reverse transcriptase (Invitrogen) with DNAse I (Ambion) treatment for 30 min. The one-tenth of the produced cDNA was amplified by PCR using Taq DNA polymerase (Invitrogen) and two reporter sequence-specific primers. The PCR products were fluorescently labeled by primer extension with 6-arboxyfluorescein (6-FAM) 5'-labeled reporter sequence-specific primer (2 min at 95 C, 20 s at 68 C and 10 min at 72 C) and these products were digested with 5U of HpaI (New England Biolabs) for 2h at 37 C. The fragments were purified using Qiaquick PCR columns (Qiagen), analyzed on an ABI 3130xL genetic analyzer (Applied Biosystems) with peak positions identified by using a set of X-rhodamine (ROX)-labeled MapMarker1000 molecular weight standards (BioVentures). The raw capillary electrophoresis data was processed using Attagraph software (Attagene).

SMILES | outcome | AC50
O=C(O)C(F)(F)C(F)(F)C(F)(F)C(F)(F)C(F)(F)C(F)(F)C(F)(F)F | inactive | –
C#CCC1=C(C)C(OC(=O)C2C(C=C(C)C)C2(C)C)CC1=O (stereo unspecified) | – | inconclusive: 53.9 µM
CCOP(=S)(OCC)O/N=C(\C#N)c1ccccc1 | – | inconclusive: 163 µM and inconclusive: 53.4 µM
CCCCC(CC)COC(=O)c1ccccc1C(=O)OCC(CC)CCCC (stereo unspecified) | – | inconclusive: 179 µM
COC(=O)N(OC)c1ccccc1COc1ccn(-c2ccc(Cl)cc2)n1 | – | inconclusive: 10 µM
CCC(=O)Nc1ccc(Cl)c(Cl)c1 | – | inconclusive: 8.56 µM and inconclusive: 22.1 µM
CCOC(=O)C(O)(c1ccc(Cl)cc1)c1ccc(Cl)cc1 | – | inconclusive: 3.37 µM and inconclusive: 3.45 µM
C#CC(C)(C)NC(=O)c1cc(Cl)cc(Cl)c1 | – | inconclusive: 100 µM
CCc1cccc(C)c1N(C(=O)CCl)C(C)COC (stereo unspecified) | – | inconclusive: 164 µM
N#Cc1c[nH]cc1-c1cccc2c1OC(F)(F)O2 | – | inconclusive: 36.3 µM and inconclusive: 26.7 µM
CCOP(=O)(NC(C)C)Oc1ccc(SC)c(C)c1 (stereo unspecified) | – | inconclusive: 167 µM and inconclusive: 142 µM
CC(C)C1CCC(Cc2ccc(Cl)cc2)C1(O)Cn1cncn1 (stereo unspecified) | – | inconclusive: 7.22 µM and inconclusive: 5.31 µM
c1cc2ccc3cccc4ccc(c1)c2c34 | – | inconclusive: 2.72 µM and inconclusive: 12.8 µM
CC(C)(c1cc(Cl)c(O)c(Cl)c1)c1cc(Cl)c(O)c(Cl)c1 | – | inconclusive: 48.8 µM
CCCC1COC(Cn2cncn2)(c2ccc(Cl)cc2Cl)O1 (stereo unspecified) | – | inconclusive: 2.68 µM
CC(C)(C)CC(C)(C)c1ccc(O)cc1 | – | inconclusive: 4.31 µM
CCOP(=S)(OCC)Oc1ccc2c(C)c(Cl)c(=O)oc2c1 | – | inconclusive: 3.67 µM
Oc1cc(Cl)c(Cl)cc1Cl | – | active: 5.4 µM and active: 2.63 µM
CCCCC(CC)COC(=O)c1ccc(C(=O)OCC(CC)CCCC)c(C(=O)OCC(CC)CCCC)c1 (stereo unspecified) | – | inconclusive: 872 nM and inconclusive: 100 µM
O=P(Oc1ccccc1)(Oc1ccccc1)Oc1ccccc1 | – | inconclusive: 100 µM
OC(c1ccc(Cl)cc1)(c1cncnc1)c1ccccc1Cl (stereo unspecified) | – | inconclusive: 11.7 µM
O=S(=O)(O)C(F)(F)C(F)(F)C(F)(F)C(F)(F)C(F)(F)C(F)(F)C(F)(F)C(F)(F)F | – | inconclusive: 182 µM
CCCCOC(=O)c1ccccc1C(=O)OCc1ccccc1 | – | inconclusive: 156 µM
CCOP(=S)(OCC)SCn1c(=O)oc2cc(Cl)ccc21 | – | inconclusive: 42.6 µM
CSC(=O)c1c(C(F)F)nc(C(F)(F)F)c(C(=O)SC)c1CC(C)C | – | inconclusive: 3.02 µM
c1ccc2c(c1)Nc1ccccc1S2 | – | inconclusive: 6.6 µM and inconclusive: 4.64 µM
